The full ranking holds about 2,300 sequences; the median of “median log2 fold change of GCK-ALFA target abundance (FLAG IP / Myc IP barcode read proportion)” is about 0.095, and the lowest 2% start at about -0.47. The list shows a part of the results.

B1: LC3A_free_8_2554 (protein)
chain: ISEEQKAKISEVLDKAEEEIVKKAKEMGVSEEEINELEALMGFLLQDVLDALEEGPEAALKAFEEESKLIVEYAKELGEELAKEVKKVLEEAKKEIEKIL
B2: LC3A_147_390 (protein)
chain: YKTVVDIDILTKNAEEEVIESFKKLVEELKKKGYEVELEIEVEKIDENTTYIHIKITIKAETKEKAEEAANEVLDHYDELEEKLKDKILGSLISVEIEEE
B3: LC3A_28_1145 (protein)
chain: SAGVEAAKAQLDADAEADKNEPEALLTANISSTTTVEDAKEIMDHVEEIVEKLKDKKKIFVLVNFEEPVSQEVLDTAVEKGEEIEKKFPNVNVIIALPED
B4: LC3A_28_962 (protein)
chain: SALDEQLEATLAAAREAAARGEARVFTINVPGTADQEDIEKVIEALEEIAELLKDVPGSAIVINVDAGVKQEHIDKLAEKAEEIEKKYPNITVIIALDED
B5: LC3A_28_1081 (protein)
chain: SAIEEQVAAAKAELEAAIARGEEAVLTLTLTEDATEEDVATLVAGMKELAELAKNGKKTSIVVDLDGDIPQEHIDTIADAAEEIEKEVPNVTVIIALDEN
B6: LC3A_3_1415 (protein)
chain: MEEKLKETLEKLKEAGHSEETLEALKELVDKLKELGAEEEAERVLELVLENKDISSEELLEVLKEALRLLTEEKLSPEEVVKELERELRIARNAQEIIEL
B7: LC3A_3_1698 (protein)
chain: MEELLKEAEKILEEKGRSEETKEAALAALTALLERGYEEAAKTLLELLKESEDLSDEILKAFFEDVLHYVQTEKKNEEEVIKFIKEEYEIAKSEEEIEEL
B8: LC3A_59_2034 (protein)
chain: DAEIEAYVARLRAAKDDDEAMAEIILEGFERFKDDPEKLARLKEALVAALVELGLLSEELARRLMEEAERIVEEEEDREEALKRILEELRVARNEEEIEE

The target of this assay is MAP1LC3A, Q9H492. Put plainly: median log2 fold change of GCK-ALFA target abundance (FLAG IP / Myc IP barcode read proportion) (log2 ratio); each designed protein is fused to an ALFA-tag nanobody in HEK293 cells to bring the named protein to FLAG-tagged glucokinase (GCK); Myc marks an untargeted standard; higher = target protein stabilised (more abundant). The following applies: target protein: 3xFLAG-MCP-GCK-ALFA reporter; HEK293 landing pad (RPLP). Put shortly:
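Binders fused to an ALFA nanobody were recombined as a library into HEK293 landing-pad cells, which were induced with 2 μg mL^−1 doxycycline and then transfected to express a FLAG-tagged target and a Myc-tagged standard. After 48 h, circular RNA barcodes recovered by anti-FLAG and anti-Myc immunoprecipitation of lysates were reverse transcribed, amplified and sequenced. Each binder's target abundance is the median log2 ratio of FLAG to Myc barcode read proportions, from barcodes present at ≥10^−7 in both replicates, binders carrying ≥3 barcodes per replicate, a 10^−6 pseudocount and pooled replicates.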
B1: the “median log2 fold change” value was -0.0712.
The value for B2 was -0.201.
Consider B3, for which the “median log2 fold change” value was found to be 0.0664.
The value for B4 was 0.184.
Turning to B5, the “median log2 fold change” value is -0.0197.
For the molecule B6, the “median log2 fold change” value turned out to be 0.237.
In the case of B7, the “median log2 fold change” value worked out at 0.104.
For B8, the “median log2 fold change” value turned out to be 0.131.

(Values after the supplement of paper PMC12632987.)
